Here are results for 40 molecules from ChEMBL document CHEMBL5308541, “MAIP: An Open-Source Tool to Enrich High-Throughput Screening Output and Identify Novel, Druglike Molecules with Antimalarial Activity” (ACS Med Chem Lett, 2023).

The structures appear in SMILES notation. Hit rate of the full screen: of about 150,000 compounds, about 540 (0.36%) showed an effect of 50% or more. The list shows a part of the results.

The assay concerns Plasmodium falciparum. Kind of assay: Primary screen in NF54 nanoGlo assay, in single point, at 2uM, 72h; a lower Z score goes with more inhibition. In kind it is functional, Erythrocyte. Conditions: timepoint 72 hour.
Broadly, the % Inhibition is the relative decrease from the control value, in per cent. With `C[C@H]1CCN(C(=O)Nc2cn(C)nc2-c2ccccc2)CC12CCC2`, the “% Inhibition” value is -9% and the Z score was found to be 1.35.
`C[C@@H](CCC(=O)Nc1cccc(-c2c[nH]cn2)c1)N1CCN(C)CC1`: the “% Inhibition” value is on record as -6% and the Z score is 0.98.
With `O=c1cc(CN2CCN(C3CCCCC3)CC2)nc(N2CCCN(Cc3cccc(C(F)(F)F)c3)CC2)[nH]1`, the “% Inhibition” value is reported as 13% and the Z score was -2.2.
Consider `CN(C)CCCN=C(N)NCC1CCC1`, for which the “% Inhibition” value is recorded as -4% and the Z score came out at 0.82.
In the case of `Fc1cccc([C@@H]2CCCN2c2cc(N3CCOCC3)ncn2)c1`, the “% Inhibition” value stood at 13% and the Z score was -2.21.
For `COc1cccc(NC(=O)C[C@H]2COCCN2C(=O)Cc2ccncc2)c1`, the “% Inhibition” value is 3% and the Z score was -0.5.
As to `O=C(CN1CCC(CN2CCOCC2)CC1)NC[C@@H](c1ccccc1Cl)N1CCCC1`, the “% Inhibition” value is -3% and the Z score turned out to be 0.6.
As for `COc1cc(Nc2nc3ccccc3s2)ccc1NC(C)=O`, the “% Inhibition” value is -5% and the Z score is listed as 0.84.
`O=C(NC1CC1)[C@@H](OCc1nc2cccc(F)c2[nH]1)C1CCN(Cc2nc3c(F)cccc3[nH]2)CC1`: the “% Inhibition” value is -9% and the Z score stood at 1.51.
As to `CN1CCN(CCNC2CCN3CCCC3C2)C(c2ccccc2)C1` (stereo not given), the “% Inhibition” value was found to be 29% and the Z score is listed as -5.14.
On the same counts, the results for `COc1ccc(Nc2cc(NC[C@@H](CO)c3cccnc3)ncn2)c(OC)c1` are -6% and 0.87.
For `CC(C)c1noc(-c2ccc(NC3CCN(Cc4ccncc4)CC3)nc2)n1`, the “% Inhibition” value is recorded as -16% and the Z score is 2.72.
As to `O=C(NCCN1CCOCC1)c1ccc(NC2CCC3CN(Cc4ccccc4)CC32)cc1` (stereo not given), the “% Inhibition” value is recorded as 9% and the Z score was -1.97.
As to `c1nc(NCc2csc(N3CCCC3)n2)c2[nH]ccc2n1`, the “% Inhibition” value is listed as 3% and the Z score was -0.67.
For the molecule `Cc1ccc(S(=O)(=O)NCCNC(=O)CCc2ccc3[nH]ccc3c2)cc1`, the “% Inhibition” value was -7% and the Z score is reported as 1.6.
With `CCc1ccc([C@@H](O)CNC2CCN(CC(F)F)CC2)cc1`, the “% Inhibition” value came to 2% and the Z score is given as -0.37.
Take `CCNC(=O)c1ccc(NC2CCN(C3CCCC3)CC2)nc1`: the “% Inhibition” value is recorded as -13% and the Z score came out at 2.21.
For the molecule `CN(C[C@]1(O)CCN(Cc2ccccc2)C1)c1ncnc2[nH]ccc12`, the “% Inhibition” value is reported as -4% and the Z score is given as 0.66.
On the same counts, the results for `CCN(C)[C@@H](C)CCNC(=O)c1ccc(-c2ccccc2C(=O)NC)cc1` are 1% and -0.09.
Turning to `COC(=O)CC1(NC(=O)c2ccc(F)cc2Cl)CCN(C)CC1`, the “% Inhibition” value is on record as -11% and the Z score is 1.89.
On the same counts, the results for `Fc1ccccc1-c1n[nH]c2c1CN(Cc1cccc3ncccc13)CC2` are -1% and 0.18.
As to `Fc1ccc2ncnc(NC3CCN(C[C@H]4CCOC4)CC3)c2c1`, the “% Inhibition” value is listed as -10% and the Z score was 2.15.
As for `COc1nc2ccccc2cc1-c1c(-c2ccccc2)ncn1CCc1c[nH]cn1`, the “% Inhibition” value is listed as 1% and the Z score is -0.13.
On to `Cc1cc(CN=C(N)N2CCCCCC2)on1`, for which the “% Inhibition” value is -5% and the Z score is given as 1.04.
Turning to `FC(F)(F)CCN1CCC(N[C@H]2CCN(c3ccccc3)C2)CC1`, the “% Inhibition” value is -4% and the Z score is on record as 0.93.
As to `CC(C)CNc1nccc(Nc2ccc(O)c(C(=O)O)c2)n1`, the “% Inhibition” value was -4% and the Z score is 0.77.
Regarding `CCn1nc(C)c2c(C(=O)N[C@@H](C)c3ccc(N4CCCCC4)cc3)cc(C)nc21`, the “% Inhibition” value is given as -7% and the Z score was 1.14.
The like results for `CN(C)C(=O)c1ccc(-c2cc(NCc3ccncc3)nc3[nH]ccc23)o1` were, in that order, -8% and 1.37.
With `CN(C[C@H]1CCCN1c1cccnn1)c1ncnc2[nH]ccc12`, the “% Inhibition” value worked out at 8% and the Z score is recorded as -1.72.
In the case of `CC1(C)O[C@H]2C[C@H](NCC(O)COc3ccc4cc[nH]c4c3)C[C@H]2O1` (stereo not given in full), the “% Inhibition” value is reported as 0% and the Z score is reported as 0.04.
Regarding `Cc1cccc(N2CCN(Cc3nc(-c4cccc(Oc5ccccc5)c4)oc3C)CC2)n1`, the “% Inhibition” value is on record as 0% and the Z score is 0.08.
Turning to `NC(=O)C[C@H](Nc1ncnc2sc(-c3ccccc3)cc12)C1CCOCC1`, the “% Inhibition” value is on record as -10% and the Z score is 1.75.
With `FC(F)(F)COc1cccc(CNc2ncnc3sccc23)n1`, the “% Inhibition” value is listed as 4% and the Z score is on record as -0.82.
For the molecule `COc1ccccc1NC(=O)c1ccc(Nc2nc3ccc(Cl)cc3o2)cc1`, the “% Inhibition” value is given as 1% and the Z score is -0.14.
Turning to `CC12CN(C(=O)Nc3cnn(CC(=O)NC4CC4)c3)CC1C1CCC2C1` (stereo not given), the “% Inhibition” value worked out at 7% and the Z score is -1.54.
The like results for `C[C@H]1CN(C2CCOCC2)CCN1S(=O)(=O)c1cnc2onc(-c3ccccc3)c2c1` were, in that order, 1% and -0.29.
As for `Nc1nccc(N2CCC(N3CCN(c4ccccc4F)CC3)C(O)C2)n1` (stereo not given), the “% Inhibition” value was found to be 7% and the Z score is given as -1.42.
On the same counts, the results for `CC(C)N1CCC[C@H](CNc2ncnc3[nH]ccc23)C1` are -5% and 0.73.
Regarding `C[C@H]1CCCCN1CCC1CCN(Cc2ccnc(N)c2)CC1`, the “% Inhibition” value is 4% and the Z score is -0.82.
Regarding `c1ccc2c(CN3CCC[C@H]3c3nc(-c4ccc(OC5CCCCC5)nc4)no3)c[nH]c2c1`, the “% Inhibition” value is listed as -13% and the Z score is given as 1.98.
